Among all 220,000 compounds or so, about 2,300 (1%) were called active. Inconclusive results, whose numbers are uncertain, are shown with a selection of clear calls. Calls follow the shape of the dose curve; as a rule, active = well fitted inhibition curve with a large enough effect; inconclusive = small, poorly fitted or top-dose-only effect, or effect the other way; inactive = no such curve, though single readings can be large or run the other way. Potencies of inconclusive entries are left out as doubtful fits.
target: Neuropeptide S receptor (Homo sapiens) (UniProt Q6W5P4); assay: qHTS Assay for Antagonists of the Neuropeptide S Receptor: cAMP Signal Transduction; conditions: CHO-NPSR cells, cAMP TR-FRET, antagonist mode; activity change, negative = inhibition: at 38.3 µM (top of the series) unless noted; also: nearly all actives have a fitted effect of over 50% in size
% is scaled to controls: 0 for no effect and ±100 for the full control effect; potency is read from the fitted curve at half-maximal effect; tags tell the direction and shape of the fitted curve.

Sequence of UniProt Q6W5P4 (Q6W5P4 whole entry, looked up): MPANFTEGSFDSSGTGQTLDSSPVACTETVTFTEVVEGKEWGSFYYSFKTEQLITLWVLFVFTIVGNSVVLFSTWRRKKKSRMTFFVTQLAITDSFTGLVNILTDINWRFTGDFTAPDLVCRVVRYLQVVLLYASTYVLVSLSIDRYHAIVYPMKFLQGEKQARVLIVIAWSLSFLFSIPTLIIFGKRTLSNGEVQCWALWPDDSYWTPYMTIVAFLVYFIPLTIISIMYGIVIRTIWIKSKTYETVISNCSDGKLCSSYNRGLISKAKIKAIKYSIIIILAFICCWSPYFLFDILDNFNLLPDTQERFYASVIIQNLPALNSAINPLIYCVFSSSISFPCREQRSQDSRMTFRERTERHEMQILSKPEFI

**Q.** `CCOC(=O)c1c(NC(=O)C(Sc2ccccc2)c2ccccc2)sc(C(=O)N(C)C)c1C` (stereo not drawn) was tested. Which Potency did it give?
**A.** inconclusive [inhibitor, single point]

**Q.** With `O=C(N/N=C/c1cccc([N+](=O)[O-])c1O)c1cccs1` as the compound, how does the “activity change, negative = inhibition” value read?
**A.** inactive: -5.8%

**Q.** For `O=C(Nc1ccccc1)C1=C[C@@H](c2ccc(Br)cc2)C[C@@H](OCc2ccc(CO)cc2)O1`, which Potency is on record?
**A.** inconclusive [activator, partial curve]

**Q.** How did the Potency turn out when `Cc1ccc(CNC(=O)c2ccc(Cn3nc(C)c(Cl)c3C)o2)cc1` was run?
**A.** inconclusive [inhibitor, single point]

**Q.** How did the Potency turn out when `CC(CCc1ccccc1)NC(=O)C1CCCN(C(=O)c2cc3sccc3n2C)C1` (stereo not drawn) was run?
**A.** inconclusive [inhibitor, single point]

**Q.** For `Cc1[nH][nH]c(=O)c1C(c1ccc(-c2ccc(Cl)cc2Cl)o1)c1c(C)[nH][nH]c1=O`, which “activity change, negative = inhibition” value is on record?
**A.** inactive: -4.25% [at 46.1 µM]

**Q.** `Cn1nc(-c2ccc(C(=O)NCCO)cc2)c2ccccc2c1=O` was tested. Which Potency did it give?
**A.** inconclusive [activator, single point]

**Q.** `CCC(=C(c1ccc(OC)cc1)c1ccc(OC)cc1)c1cn(CC(O)CN(CCO)CCO)c2ccccc12` (stereo not drawn) was tested. Which Potency did it give?
**A.** inconclusive [inhibitor, single point]

**Q.** `O=c1[nH]c(Cn2nnc(-c3ccccc3)n2)nc2scc(-c3ccccc3)c12` was tested. Which “activity change, negative = inhibition” value did it give?
**A.** inactive: -9.9% [at 46.1 µM]

**Q.** `Cc1ccc2nc(N3C(=O)C(O)=C(C(=O)c4ccco4)C3c3cccs3)sc2c1` (stereo not drawn) was tested. Which Potency did it give?
**A.** active: 7.94 µM

**Q.** `Cc1ccc(N(CCCCN2C(=O)c3ccccc3C2=O)C(=O)c2cccc([N+](=O)[O-])c2)cc1` was tested. Which Potency did it give?
**A.** inconclusive [inhibitor, partial curve]

**Q.** `CC(=O)N1N=C(c2ccc(C)cc2)OC1c1ccc(C(C)C)cc1` (stereo not drawn) was tested. Which Potency did it give?
**A.** inconclusive [inhibitor, single point]

**Q.** With `O=C(NC(=S)Nc1ccc(S(=O)(=O)N2CCCCC2)cc1)c1ccccc1` as the compound, how does the “activity change, negative = inhibition” value read?
**A.** inactive: -25.3% [at 46.1 µM]

**Q.** `O=[N+]([O-])c1ccc(Nc2nc(N/N=C\c3ccc4c(c3)OCO4)nc(N3CCCCC3)n2)cc1` was tested. Which Potency did it give?
**A.** inconclusive [inhibitor, single point]

**Q.** For `CCOc1ccc(-n2nc3ccc(NC(=O)c4ccc5c(c4)OCCO5)cc3n2)cc1`, which Potency is on record?
**A.** active: 10 µM

**Q.** Which Potency does the source give for `Cc1cc(Br)ccc1OCC(=O)N1CCCCCC1` here?
**A.** inconclusive [inhibitor, single point]

**Q.** `CCC(C)c1ccc(NC(=O)c2cccnc2)cc1` (stereo not drawn) was tested. Which Potency did it give?
**A.** inconclusive [inhibitor, single point]

**Q.** For `O=C(COC(=O)c1ccc(Br)o1)Nc1nc2c(F)c(F)c(F)cc2s1`, which “activity change, negative = inhibition” value is on record?
**A.** inactive: -6.27%

**Q.** `CCOc1ccccc1NC(=O)C1=C(C)NC(=S)NC1c1cccs1` (stereo not drawn) was tested. Which “activity change, negative = inhibition” value did it give?
**A.** inactive: -11.6%

**Q.** With `OC(COc1ccc2cc(Br)ccc2c1)CN1CCCC1` (stereo not drawn) as the compound, how does the Potency read?
**A.** inconclusive [inhibitor, single point]

**Q.** For `Oc1ccc(N2CCN(C(c3cccnc3)c3nnnn3Cc3ccccc3)CC2)cc1` (stereo not drawn), which Potency is on record?
**A.** inconclusive [inhibitor, single point]

**Q.** Which “activity change, negative = inhibition” value does the source give for `O=C(CC(Nc1ccc(Cl)cc1)C(=O)O)c1ccccc1` (stereo not drawn) here?
**A.** inactive: 4.08% [at 46.1 µM]

**Q.** With `COc1cc2c(cc1NC(=O)CSc1nc3ccccc3[nH]1)oc1ccccc12` as the compound, how does the Potency read?
**A.** inconclusive [inhibitor, partial curve]

**Q.** Which Potency does the source give for `O=C(O)/C=C/c1cnc[nH]1` here?
**A.** inconclusive [activator, single point]

**Q.** With `CCOC(=O)C1(CCOc2ccccc2)CCN(C(=O)c2ccc(-n3cccn3)cc2)CC1` as the compound, how does the Potency read?
**A.** inconclusive [activator, single point]

**Q.** `CCCn1c(SCC(=O)Nc2c(CC)cccc2CC)nnc1C(C)C` was tested. Which Potency did it give?
**A.** inconclusive [inhibitor, single point]

**Q.** For `CC(C)OCCCNC1=C(Cl)C(=O)c2ccccc2C1=O`, which Potency is on record?
**A.** active: 10 µM

**Q.** With `CSC1=N/C(=C\c2ccc3c(c2)OCO3)C(=O)S1` as the compound, how does the Potency read?
**A.** inconclusive [inhibitor, single point]

**Q.** With `COc1cc2ccccc2cc1C(=O)Nc1ccc(Cc2ccncc2)cc1` as the compound, how does the Potency read?
**A.** inconclusive [inhibitor, partial curve]

**Q.** `COc1ccc(CCn2c(NN=C(C)C)nc3c2c(=O)[nH]c(=O)n3C)cc1` was tested. Which “activity change, negative = inhibition” value did it give?
**A.** inactive: -2.95%

**Q.** Which Potency does the source give for `COC(=O)c1ccccc1NC(=O)c1cc2sccc2n1C` here?
**A.** inconclusive [inhibitor, single point]

**Q.** With `O=C(COCCOCC(=O)N(c1ccccn1)C1CCCCC1)N(c1ccccn1)C1CCCCC1` as the compound, how does the “activity change, negative = inhibition” value read?
**A.** inactive: -9.43% [at 46.1 µM]

**Q.** With `CN(C)c1ccc(N2CN=C3SCC(=O)N3C2)cc1` as the compound, how does the Potency read?
**A.** inconclusive [inhibitor, full curve]

**Q.** `CS(=O)(=O)N(CC(O)Cn1c2ccccc2c2ccccc21)c1cccc2ccccc12` (stereo not drawn) was tested. Which Potency did it give?
**A.** inconclusive [inhibitor, single point]

**Q.** `CCOc1cc(/C=N\NC(=O)c2ccc(C)nc2)cc([N+](=O)[O-])c1O` was tested. Which Potency did it give?
**A.** inconclusive [inhibitor, partial curve]

**Q.** For `O=C(CSc1nnc(-c2ccc(C(F)(F)F)cn2)s1)c1ccc(Cl)cc1`, which Potency is on record?
**A.** inconclusive [activator, single point]

**Q.** `Cc1ccc(NC(=O)Nc2ccc(S(N)(=O)=O)cc2)cc1` was tested. Which “activity change, negative = inhibition” value did it give?
**A.** inactive: -8.39%

**Q.** `COC(=O)c1ccc(CN2CCN(Cc3ccc(C(=O)OC)o3)CC2)o1` was tested. Which Potency did it give?
**A.** inconclusive [inhibitor, partial curve, poor fit]

**Q.** How did the “activity change, negative = inhibition” value turn out when `CC1=Nc2ccccc2/C1=C/c1sc(=S)n(-c2cccc(C(=O)O)c2)c1O` was run?
**A.** inactive: -7.98%

**Q.** For `CC(C)(C)c1nn2cnnc2n(/N=C/c2ccc(O)cc2)c1=O`, which Potency is on record?
**A.** inconclusive [inhibitor, single point]

**Q.** For `CCn1c(=S)ccc2ccc(OC)cc21`, which Potency is on record?
**A.** inconclusive [activator, single point]

**Q.** `CCN(CC)S(=O)(=O)c1ccc(C(=O)Nc2cccc(C)c2)cc1` was tested. Which Potency did it give?
**A.** inconclusive [inhibitor, single point]

**Q.** For `FC(F)(F)c1nc(N2CCCC2)ncc1-c1nnnn1-c1ccc(Cl)cc1`, which Potency is on record?
**A.** inconclusive [inhibitor, single point]

**Q.** With `CCN1C(=O)/C(=C\C(=O)c2cccs2)c2cc(Br)ccc21` as the compound, how does the “activity change, negative = inhibition” value read?
**A.** inactive: -28.2%

**Q.** Which “activity change, negative = inhibition” value does the source give for `Cn1c(CN2CCCC2)c(C#N)c2ccccc21` here?
**A.** inactive: -12.2%

**Q.** Which Potency does the source give for `Cc1ccc2nsnc2c1NC(=O)c1sc2ccccc2c1Cl` here?
**A.** inconclusive [inhibitor, single point]

**Q.** How did the Potency turn out when `COc1ccc(S(=O)(=O)n2ccc(-c3cnc(-c4ccccc4)s3)n2)cc1` was run?
**A.** inconclusive [inhibitor, partial curve]

**Q.** Which “activity change, negative = inhibition” value does the source give for `Cc1cc(=O)oc2cc(OCC(=O)NCc3ccncc3)ccc12` here?
**A.** inactive: -7.66% [at 46.1 µM]

**Q.** For `CCCc1cc(-c2n[nH]c(=S)n2C(C)c2ccccc2)cs1` (stereo not drawn), which “activity change, negative = inhibition” value is on record?
**A.** inactive: -7.04% [at 46.1 µM]

**Q.** Which “activity change, negative = inhibition” value does the source give for `COC(=O)CN(n1cnnc1)S(=O)(=O)c1ccccc1Cl` here?
**A.** inactive: 4.45% [at 46.1 µM]

**Q.** For `COc1ccc(S(=O)(=O)N2CCCN(CC(=O)Nc3ccc(OC)c(Cl)c3)CC2)cc1`, which Potency is on record?
**A.** inconclusive [inhibitor, partial curve]

**Q.** For `O=S(=O)(c1cnc(Cl)c(Cl)c1)N1CCCc2ccccc21`, which “activity change, negative = inhibition” value is on record?
**A.** inactive: -19.1%

**Q.** `CN1/C(=C/C=N/NC(=O)c2ccc([N+](=O)[O-])cc2)C(C)(C)c2ccccc21` was tested. Which “activity change, negative = inhibition” value did it give?
**A.** inactive: -1.28%

**Q.** Which “activity change, negative = inhibition” value does the source give for `Cc1cc(NC(=O)C(C)(C)C)no1` here?
**A.** inactive: -6.88% [at 46.1 µM]

**Q.** With `Nc1c(C(=O)N/N=C/c2ccccc2Cl)oc2nc(-c3ccccc3)cc(-c3ccco3)c12` as the compound, how does the “activity change, negative = inhibition” value read?
**A.** inactive: -12%

**Q.** Which Potency does the source give for `O=C(Nc1ccc(F)cc1)c1sc2cc(C(F)(F)F)cnc2c1-c1cccs1` here?
**A.** inconclusive [inhibitor, single point]

**Q.** With `CC(O)CCC(=O)NNC(=S)Nc1ccccc1` (stereo not drawn) as the compound, how does the “activity change, negative = inhibition” value read?
**A.** inactive: -14.9%

**Q.** Which Potency does the source give for `Cc1cccc(Cn2c(N3CCN(c4ccccc4)CC3)nc3c2c(=O)n(C)c(=O)n3C)c1` here?
**A.** inconclusive [inhibitor, partial curve]

**Q.** Which “activity change, negative = inhibition” value does the source give for `FC(F)(F)c1cc(-c2ccccc2)nc(N2CCCCC2)n1` here?
**A.** inactive: -10.1% [at 46.1 µM]

**Q.** With `CCOc1ccc2nc(SCC(=O)c3ccccc3)sc2c1` as the compound, how does the “activity change, negative = inhibition” value read?
**A.** inactive: -22.9% [at 46.1 µM]

**Q.** With `COc1ccc(-n2c(SCC(=O)Nc3sc4c(c3C#N)CCCC4)nnc2-c2ccccc2OC)cc1` as the compound, how does the “activity change, negative = inhibition” value read?
**A.** inactive: -26.3% [at 46.1 µM]

**Q.** `Cc1cc(NC(=O)c2ccc(F)cc2)n(CCOC(=O)c2ccc(F)cc2)n1` was tested. Which Potency did it give?
**A.** inconclusive [inhibitor, single point]

**Q.** With `O=C(c1ccc(COc2ccc(Cl)cc2)o1)N1CCN(Cc2ccc3c(c2)OCO3)CC1` as the compound, how does the Potency read?
**A.** inconclusive [inhibitor, single point]

**Q.** `CCN(CC)c1ccc(/C=N/Nc2nc(C)cc(=O)[nH]2)c(O)c1` was tested. Which “activity change, negative = inhibition” value did it give?
**A.** inactive: -19.7%

**Q.** With `CCN(CC)S(=O)(=O)c1cccc(-c2nnc(SCC(=O)c3cc(C)n(C4CC4)c3C)o2)c1` as the compound, how does the Potency read?
**A.** inconclusive [inhibitor, partial curve, poor fit]

**Q.** How did the Potency turn out when `COc1ccc(C2SCC(=O)N2CC23CC4CC(CC(C4)C2)C3)cc1` (stereo not drawn) was run?
**A.** inconclusive [inhibitor, single point]

**Q.** `Cn1c(=O)c2cn(-c3ccc4c(c3)OCCO4)cc2n(C)c1=O` was tested. Which “activity change, negative = inhibition” value did it give?
**A.** inactive: 0.247% [at 46.1 µM]

**Q.** `Cc1ccc(NC(=S)NNC(=O)C2CC2c2ccc(C)cc2)cc1` (stereo not drawn) was tested. Which “activity change, negative = inhibition” value did it give?
**A.** inactive: -13.4% [at 46.1 µM]

**Q.** Which Potency does the source give for `Cc1ccc(C2CC2c2n[nH]c(=S)n2-c2cccc(C)c2)cc1` (stereo not drawn) here?
**A.** inconclusive [activator, single point]

**Q.** How did the Potency turn out when `COc1cccc(C(=O)Nc2c(F)c(F)c(F)c(F)c2F)c1` was run?
**A.** inconclusive [inhibitor, single point]

**Q.** For `CC1(C)CCC2=C(O1)c1ccccc1C(=O)C2=O`, which Potency is on record?
**A.** inconclusive [inhibitor, full curve]

**Q.** With `O=C(Nc1nccs1)c1cc2sccc2n1Cc1ccc(F)cc1` as the compound, how does the Potency read?
**A.** inconclusive [inhibitor, single point]

**Q.** Which Potency does the source give for `CCOC(=O)C1=C(O)/C(=C\c2ccc(OC)c(OC)c2)N=C1C` here?
**A.** inconclusive [inhibitor, single point]
